Laboratory results from the supplement of paper PMC10338343.
± gives the standard deviation. Whole data set: some 6,600 sequences, median “pre-steady-state target cleavage rate” near 0.07, cut for the highest 2% near 0.72. This is a selection; strong and weak results do not stand in their true shares.

test system: MIWI (PIWIL1) piRISC loaded with Kctd7 piRNA (30 nt); assay: pre-steady-state target cleavage rate (min^-1); MIWI and MILI are mouse PIWI proteins and EfPiwi is from a freshwater sponge; tags in brackets are library labels; higher = faster piRNA-guided slicing of the target; conditions: guide: Kctd7 piRNA 5'p-UGUUAAUCUCUCAGAGAAGGUGACAGUGAU; auxiliary factor: 500 nM mouse GTSF1
In short: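 Reactions were run for 0–8 or 0–960 min at 33 °C in HEPES–potassium acetate buffer, combining 1 nM active affinity-purified piRISC with one synthetic guide, […] transcribed, DNA-blocked target RNA library and, in some cases, 500 nM GTSF1 partner protein. Sequencing of uncleaved targets followed, with normalisation to depth and to weakly complementary targets. Three trials were pooled, k3 was capped at 0.0001 min^-1, and the pre-steady-state cleavage rate was taken from a burst-and-steady-state fit.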
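Further: 1 nM active piRISC with 0.1 nM target library at 33 °C single turnover.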

Sequence	pre-steady-state target cleavage rate
AUCACUGUCACCUUCUCUGAGACUUUAAGA	0.00679 ± 0.0035
UAGACUGUCACCUACUCUGAGAGAUAAACA	0.261 ± 0.034
UAGUGACUCACCUUCUCUGAGACGAUUAACA	0.0054 ± 0.0032
UACACUGUCACCUUCUGUGAGACAUUAACA	0.131 ± 0.017
UAGACUGUCACCUUCUCUGAGAGAUAAUCA	0.0918 ± 0.018
AUCACUGUCACCUUCUCUGAAAGAUUAACA	0.464 ± 0.03
UACACUGUCACCUUCUCUGUGAGAAUAACA	0.0586 ± 0.011
UAGUGACAUACCUUCUCUGAGAGAUUAACA	0.12 ± 0.013
UAGUGACUCACCUACUGUGAGAGAUUAACA	0.0152 ± 0.0054
UUCACUCUCACCUUGUCUGAGAGAUUAACA	0.219 ± 0.03
UAGACUGCACCUUCUCUGAGAGAUUAACA	0.698 ± 0.046
UAGUCUGUCACCUUCUCUGAGAGAUAUUGA [g6:g26:cont:t1A]	0.0252 ± 0.009
AUCACUGUCACCUUGUCUGACAGAUUAACA	0.246 ± 0.032
UAGUGUGACACCUUCUCUGAGAGAUUAAGA	0.178 ± 0.037
UAGUGUGUCACUUCUCUGAGAGAUUAACA	0.326 ± 0.026
UAGUCUGUCACCUUCUCUGAGAGAUUAACC [g2:g26:cont:t1C]	0.35 ± 0.027
UAGUGAGUGACGUUCUCUGAGAGAUUAACA	0.283 ± 0.023
UAGUGUGUCACCUUCUCUGACAGAUUAUCA	0.0626 ± 0.015
UAGUGACAGUCCUUCUGUGAGAGAUAAACA	0.00822 ± 0.0023
AUCACUGUCACCUUCUCUGAGAGAUUUUCA	0.355 ± 0.067
UACACUCUCACCUUCUGUGAGAGAUUAACA	0.0695 ± 0.01
UUCACUGUCACCUUCUCUCAGAGAUUUUGA	0.0218 ± 0.0088
UAGUGACUCACCUACUCUGACAGAUUAACA	0.0253 ± 0.0046
UAGUCUGUCACCUUGUCUCAGAGAUUAACA	0.0318 ± 0.0044

Sequence	pre-steady-state target cleavage rate
AACACUGUCACCUUCUCUGAGAGAUAAACA	0.361 ± 0.039
UAGUGACUCACCUUCUCUGAGAGAUGAACA	0.108 ± 0.018
UAGUCUGUCUCCUUCUCUGAGAGUUUAACA	0.294 ± 0.047
UUCACUGUGACCUACUCUGAGAGAUUAACA	0.572 ± 0.035
UACACCGUCACCUUCUCUGAGAGAUUAACA	0.78 ± 0.04
UAGUGUGUCACCUUGACUGAGAGAUUAACA	0.0613 ± 0.0069
UAGUGACAGACCUUCUCUCAGAGUUUAACA	0.00706 ± 0.0029
UACACUGUCACCUUCACUGACAGAUUAACA	0.234 ± 0.031
AUCAUGUCACCUUCUCUGAGAGAUUAACA	0.517 ± 0.032
UAGACUCUCACCUUCUCUGAGAGAUAAACA	0.21 ± 0.025
UAGUGACACACCUUCUCUGAGAGAUUCACA	0.482 ± 0.1
AUCACUGUCACCUUCUCUGUAGAGAUUAACA	0.193 ± 0.061
AUCACUGUCACCUUCUCUGUCAGAUUAAGA	0.0106 ± 0.005
UACACUGUCACCUUCUCUGUGAGUUUAACA	0.142 ± 0.017
UAGUGACUCACUUCUCUGAGAGAUUAACA	0.0229 ± 0.0052
AUCAGUCUCACCUUCUCUGAGAGAUUAACA	0.675 ± 0.027
UAGUGUGUCAGCAUCUCUGAGAGAUUAACA	0.368 ± 0.037
UACACUGUCUGCUUCUCUGAGAGAUUAUGA	0.0251 ± 0.0074
UAGUGACAGUGCUUCUCUGAGAGAUUCACA	0.008 ± 0.003
UUCAGACUCACCUUCUCUGAGAGAUUAUGA	0.0522 ± 0.01
UAGUGAGUCACCUUGUCAGAGAGAUUAACA	0.102 ± 0.01
UAGAGUGUCACCUUCUCUGAGAGAUUAAGA	0.192 ± 0.034
UACACUGUCACCUUCUCUGAGAUGAUUAACA	0.0639 ± 0.023
UAGUCUGUCACCUACACUGAGAGAUUAACA	0.218 ± 0.017

Sequence	pre-steady-state target cleavage rate
UAGUGAGUCACCUUCUCUGAGAGAUAAUCA	0.0599 ± 0.013
UUCACUGUCACCUUCUCAGACAGAUUAACA	0.118 ± 0.014
UAGUGACUCACCUACUCUGAGAGAUUAUCA	0.233 ± 0.049
UAGUCUGUCUCCUUCUCUGAGUGAUUAACA	0.0221 ± 0.0035
UAGUGAGUCACCUUCUCAGAGAGAUUUUGA	0.0623 ± 0.021
UAGACUGUCACCUUCUCUGAGAGACUUAACA	0.213 ± 0.024
AAGACUGUCACCUUCUCUGAGAGAUUAAGA	0.238 ± 0.037
UAGACUGUCACCUUGUCUGAGAGAUAAACA	0.408 ± 0.08
UAGUGACAGUCCUUCACUGACAGAUUAACA	0.00506 ± 0.0036
UACACACACACCUUCUCUGAGAGAUUUUGA	0.0282 ± 0.012
UAGUCUGUCACCUUCUCUGACACAUUAACA	0.0718 ± 0.0067
UAGACUGUCACCUUCUCUGAGACAUUAACA	0.0657 ± 0.0098
UAGUGUGUCUCCUUCUCUGAGACAUUAACA	0.0238 ± 0.0061
UACACUGUCACCUUCUCUGAGAGAAUAUCA	0.171 ± 0.047
AUCACUGUCACCUUCUCUGAGUGAUUUACA	0.0386 ± 0.01
UAGUCUGUCACCUUCUCUGAGAGAUAUAACA	0.4 ± 0.044
UACACUGUCUCCUUCUCUGAGAGAUAAACA	0.189 ± 0.029
UAGUCUGUCACCUUCUUGAGAGAUUAACA	0.0378 ± 0.013
UUCACUGAGACCUUCUCUGAGAGAUUAAGA	0.0958 ± 0.022
UUCACUGUCACCUUCUCUCUCAGAUUAACA	0.00363 ± 0.0035
UAGUGAGUCACCUUCUCUGAGAGACUUAACA	0.0994 ± 0.018
UAGACUGUCACCUUCUCUGAGAGAAUAACA	0.515 ± 0.091
AUCACUGUCACCUUCUCUGAGAGAUUAAACA	0.462 ± 0.032
UAGACUGUCACCUUCUGUGAGUGAUUAACA	0.016 ± 0.0029
